Data on 59 molecules can be found in PubChem BioAssay AID360 (National Center for Advancing Translational Sciences (NCATS), 2006).

Molecules are shown by their SMILES. The whole screen tested about 48,000 compounds, of which about 550 (1.1%) were called active. About 4% were inconclusive and are not listed. No stated cut-off is given here; in the data, active means potency below about 15 µM; inconclusive means mostly about 16 µM to 33 µM; inactive means weaker than that. Some of the results follow.
Potency means the concentration at half of the fitted maximal effect.

The target of the test is Lysosomal acid glucosylceramidase (Homo sapiens) (UniProt P04062). The test is described as follows: Glucocerebrosidase.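 Further: the screen sought inhibitors.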 The following applies: purified enzyme, resorufin glucoside fluorescence (screen aimed at inhibitors), 20 min. An outline of the steps: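 Normal human glucocerebrosidase (0.2 nM final) was assayed with resorufin β-D-glucopyranoside (30 uM final) in 50mM citric acid/KH2PO4, 10mM sodium taurocholate, 0.01% tween-20, pH 5.9. Compounds were titrated; fluorescence (Ex 548, Em 600) read after 20 min at RT.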
Chain of UniProt P04062 (P04062 whole entry, looked up): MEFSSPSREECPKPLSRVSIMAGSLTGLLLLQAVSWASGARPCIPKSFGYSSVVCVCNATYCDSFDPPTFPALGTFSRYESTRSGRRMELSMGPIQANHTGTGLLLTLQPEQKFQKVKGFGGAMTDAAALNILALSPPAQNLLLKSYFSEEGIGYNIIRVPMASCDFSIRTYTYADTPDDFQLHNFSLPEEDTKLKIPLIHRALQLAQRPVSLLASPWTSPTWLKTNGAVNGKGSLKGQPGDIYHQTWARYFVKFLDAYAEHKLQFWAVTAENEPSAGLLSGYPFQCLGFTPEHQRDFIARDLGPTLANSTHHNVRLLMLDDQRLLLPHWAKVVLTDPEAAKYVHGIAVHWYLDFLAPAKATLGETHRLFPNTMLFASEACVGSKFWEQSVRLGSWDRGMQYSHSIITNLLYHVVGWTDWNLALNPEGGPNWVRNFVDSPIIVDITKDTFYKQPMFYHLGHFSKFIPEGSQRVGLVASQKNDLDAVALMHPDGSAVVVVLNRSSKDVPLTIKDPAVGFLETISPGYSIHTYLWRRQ
With `O=C(Cn1cnc2ccccc2c1=O)NCC(=O)N1CCN(Cc2ccc3c(c2)OCO3)CC1`, the Potency was inactive: > 76.9 µM.
The same measure for `Cc1cccc(N2CCN(S(=O)(=O)c3ccc4c(c3)CCN4C(=O)CCC(=O)O)CC2)c1C`: inactive: > 76.9 µM; for `C=CCNc1nnc(C)c2ccccc12`: inactive: > 76.9 µM.
Regarding `CS(=O)(=O)N1CCC(C(=O)Nc2c(F)cccc2F)CC1`, the Potency was inactive: > 76.9 µM.
As to `C=CCn1c(CCCNC(=O)CCC)nc2ccccc21`, the Potency is inactive: > 76.9 µM.
The same measure for `Cn1c(=O)c2c(ncn2CC(O)CNc2ccc(Br)cc2)n(C)c1=O` (centres undefined): inactive: > 76.9 µM.
The same measure for `COc1ccc(CC2C(=O)OC(C)(C)OC2=O)cc1`: inactive: > 76.9 µM; for `CCSc1sccc1C1C(C#N)=C(N)N(c2cccnc2)C2=C1C(=O)CCC2` (centres undefined): inactive: > 76.9 µM; for `COCCn1c(C2CCCCC2)nc2sc3ccccc3c(=O)c2c1=O`: inactive: > 76.9 µM.
`O=C(NCc1cccs1)C1CCCN1C(=O)NC1CCCCC1` (centres undefined): the Potency was inactive: > 76.9 µM.
`C/C(N)=C(/C#N)C(=O)CSc1nc(C2CCCCC2)n(-c2ccccc2)n1`: the Potency was inactive: > 76.9 µM.
The same measure for `CCN1CCC(NC(=O)c2cc(OC)c(OC)cc2OC)CC1`: inactive: > 76.9 µM.
In the case of `Cn1c(C(=O)N2CCCC(C(=O)NCCCSC3CCCCC3)C2)cc2sccc21` (centres undefined), the Potency entry was “inactive”.
In the case of `O=C(c1cccc(F)c1)N1C2C=CC(C2)C1(C(F)(F)F)C(F)(F)F` (centres undefined), the Potency was inactive: > 76.9 µM.
As for `O=C(COC(=O)c1ccccc1C(=O)c1ccccc1)c1ccco1`, the Potency was inactive: > 76.9 µM.
As to `O=C(CSc1cccc[n+]1[O-])c1cc2ccccc2o1`, the Potency was inactive: > 76.9 µM.
For `COCCN1CCn2c(nc3cc(NC(=O)c4ccc(OC)cc4)ccc32)C1`, the Potency entry was “inactive”.
Take `COc1ccc(C2C(C(=O)Nc3ccccc3OC)=C(C)Nc3nnnn32)c(OC)c1` (centres undefined): the Potency was inactive: > 76.9 µM.
Consider `CC(=O)N1CCN(C(=O)Nc2cccc(C(F)(F)F)c2)CC1`, for which the Potency was inactive: > 76.9 µM.
With `CCS(=O)(=O)c1nc2ccccc2n1CC(=O)N1CCOCC1`, the Potency was inactive: > 76.9 µM.
Take `O=C(Nc1ccccc1C(=O)OCn1nnc2ccccc2c1=O)c1ccco1`: the Potency result was “inactive”.
The same measure for `O=C(CC(Nc1ccc(F)cc1)C(=O)O)c1ccccc1` (centres undefined): inactive: > 76.9 µM; for `O=C(NC1CC1)c1ccc2c(c1)ncn2C1CCCC1`: inactive: > 76.9 µM; for `CCC(C)c1ccc2oc(-c3ccc(NC(=O)Cn4cnc5c(=O)n(C)c(=O)n(C)c54)cc3)nc2c1` (centres undefined): inactive: > 76.9 µM.
In the case of `COc1cccc2cc(NC(=O)C3CCCCC3)c(=O)oc12`, the Potency is inactive: > 76.9 µM.
With `CCCCOc1nc2ccccc2nc1C(C#N)S(=O)(=O)c1ccccc1` (centres undefined), the Potency is inactive: > 76.9 µM.
For `CN(C1CCS(=O)(=O)C1)S(=O)(=O)c1ccc(N2CCCC2=O)cc1` (centres undefined), the Potency is inactive: > 76.9 µM.
As to `CCC(=O)Nc1ccc(NC(=O)c2c(C)nc3ccccn23)cc1`, the Potency was inactive: > 76.9 µM.
With `CC(=O)OC1CC(C)(C)N(OC(=O)CCCN2C(=O)c3ccccc3C2=O)C(C)(C)C1`, the Potency is inactive: > 76.9 µM.
`O=C(CCN1CCCCC1)NCNC(=O)CCN1CCCCC1`: the Potency was inactive: > 76.9 µM.
The same measure for `CCOC(=O)/N=C(/NC(=O)Nc1ccc(C(=O)OCC)cc1)OC`: inactive: > 76.9 µM; for `Cc1cc(C#N)c2ccccc2n1`: inactive: > 76.9 µM; for `CC(=O)Nc1ccc(NC(=O)CN2CCCC(C)C2)c(Cl)c1` (centres undefined): inactive: > 76.9 µM.
On to `O=c1c(-c2ccc3c(c2)OCCO3)coc2cc(O)cc(O)c12`, for which the Potency was inactive: > 76.9 µM.
In the case of `COC(=O)CC1Oc2ccccc2N(Cc2ccc(C)cc2)C1=O` (centres undefined), the Potency was inactive: > 76.9 µM.
With `CSc1nnc(Cc2cc(=O)[nH]c(=O)[nH]2)n1-c1cc(C)ccc1C`, the Potency was inactive: > 76.9 µM.
As for `CCn1c(SCC(=O)N2c3ccccc3CCc3ccccc32)nc2c1c(=O)n(C)c(=O)n2C`, the Potency was inactive: > 76.9 µM.
In the case of `COc1ccc(S(=O)(=O)NC(CC(=O)NCC2CCCO2)c2ccco2)cc1` (centres undefined), the Potency was inactive: > 76.9 µM.
For the molecule `CC1CCN(C(=O)c2ccc(N(C)S(C)(=O)=O)cc2)CC1`, the Potency is inactive: > 76.9 µM.
For the molecule `CN1C(=O)CSc2ccc(NC(=O)N3CCc4ccccc43)cc21`, the Potency was inactive: > 76.9 µM.
Regarding `COc1cc(C2C(C(C)=O)=C(O)C(=O)N2CCc2c[nH]c3ccccc23)ccc1O` (centres undefined), the Potency was inactive: > 76.9 µM.
The result for `C=CCSc1nc(N)c(C#N)c(-c2ccc(C)cc2)c1C#N` reads inactive: > 76.9 µM; that for `Cc1ccc(CCN2CC(C(=O)NCCN3CCOCC3)CC2=O)cc1` (centres undefined), inactive: > 76.9 µM; that for `C=Cn1nc(C)c2ccccc2c1=O`, inactive: > 76.9 µM.
`C=CCn1c(SC2CCOC2=O)nc2scc(C3CC3)c2c1=O` (centres undefined): the Potency is inactive: > 76.9 µM.
`COc1ccc(OC)c(NC(=O)CN2CCN(C(=O)c3ccco3)CC2)c1`: the Potency was inactive: > 76.9 µM.
As for `Cc1ccc(N(C=NC#N)CC(=O)N2CCN(c3ccccc3)CC2)cc1`, the Potency is inactive: > 76.9 µM.
The result for `OCc1nc2ccccc2n1C/C=C/c1ccccc1` reads inactive: > 76.9 µM.
`O=C(CN(Cc1ccccc1F)C(=O)c1ccco1)NCc1ccc(F)cc1`: the Potency is inactive: > 76.9 µM.
For the molecule `Cc1onc(-c2ccccc2)c1C(=O)OCC(=O)Nc1ccc2c(c1)OCO2`, the Potency is inactive: > 76.9 µM.
`CCOC(=O)c1ccc(Nc2ncnc3c2cnn3C)cc1`: the Potency entry is “inactive”.
As for `Cn1c(-c2cccc(Br)c2)cnc1NCc1cccnc1`, the Potency is inactive: > 76.9 µM.
With `COC(=O)Cc1[nH]nc2c1C(C1C=CCCC1)C(C#N)=C(N)O2` (centres undefined), the Potency was inactive: > 76.9 µM.
In the case of `Oc1ccc(CN2CCN(Cc3ccccc3)CC2)c2cccnc12`, the Potency is inactive: > 76.9 µM.
Regarding `COc1ccc(NC(=O)Cn2nc3n(c2=S)CCC3)cc1`, the Potency is inactive: > 76.9 µM.
For the molecule `COC(=O)COc1cccc(NS(=O)(=O)c2ccc(NC(C)=O)cc2)c1`, the Potency is inactive: > 76.9 µM.
Regarding `COc1ccccc1C(=O)Nc1ccccc1C(=O)N1CCCC1`, the Potency is inactive: > 76.9 µM.
On to `C=CCSc1nsc(N)n1`, for which the Potency was inactive: > 76.9 µM.
As to `O=C1c2ccccc2C(=O)N1CCCP(=O)(O)CCc1ccccc1`, the Potency was inactive: > 76.9 µM.
